Test results as given in PubChem BioAssay AID588579 (National Center for Advancing Translational Sciences (NCATS), 2011).
“And” between values parts separate entries of the source, which are not always exact repeats. Identical values can stand only once. Screen size: about 400,000 compounds; about 2,200 (0.55%) were called active. Inconclusive means that the source gave no clear call. Such entries were picked first, then a sample of the others. Calls come from the whole dose curve; as a rule, active = well fitted inhibition curve with a large enough effect; inconclusive = small, poorly fitted or top-dose-only effect, or another doubt; inactive = no such curve, though single readings can be large or run the other way. A potency beside an inconclusive call is a rough fit, not a confirmed value.

molecular target: DNA polymerase kappa (Homo sapiens) (UniProt Q9UBT6); experiment: qHTS for Inhibitors of Polymerase Kappa; details: purified Pol kappa, fluorescent DNA synthesis assay, 10 min; series mostly up to 107 µM
Chain of UniProt Q9UBT6 (Q9UBT6 whole entry, looked up): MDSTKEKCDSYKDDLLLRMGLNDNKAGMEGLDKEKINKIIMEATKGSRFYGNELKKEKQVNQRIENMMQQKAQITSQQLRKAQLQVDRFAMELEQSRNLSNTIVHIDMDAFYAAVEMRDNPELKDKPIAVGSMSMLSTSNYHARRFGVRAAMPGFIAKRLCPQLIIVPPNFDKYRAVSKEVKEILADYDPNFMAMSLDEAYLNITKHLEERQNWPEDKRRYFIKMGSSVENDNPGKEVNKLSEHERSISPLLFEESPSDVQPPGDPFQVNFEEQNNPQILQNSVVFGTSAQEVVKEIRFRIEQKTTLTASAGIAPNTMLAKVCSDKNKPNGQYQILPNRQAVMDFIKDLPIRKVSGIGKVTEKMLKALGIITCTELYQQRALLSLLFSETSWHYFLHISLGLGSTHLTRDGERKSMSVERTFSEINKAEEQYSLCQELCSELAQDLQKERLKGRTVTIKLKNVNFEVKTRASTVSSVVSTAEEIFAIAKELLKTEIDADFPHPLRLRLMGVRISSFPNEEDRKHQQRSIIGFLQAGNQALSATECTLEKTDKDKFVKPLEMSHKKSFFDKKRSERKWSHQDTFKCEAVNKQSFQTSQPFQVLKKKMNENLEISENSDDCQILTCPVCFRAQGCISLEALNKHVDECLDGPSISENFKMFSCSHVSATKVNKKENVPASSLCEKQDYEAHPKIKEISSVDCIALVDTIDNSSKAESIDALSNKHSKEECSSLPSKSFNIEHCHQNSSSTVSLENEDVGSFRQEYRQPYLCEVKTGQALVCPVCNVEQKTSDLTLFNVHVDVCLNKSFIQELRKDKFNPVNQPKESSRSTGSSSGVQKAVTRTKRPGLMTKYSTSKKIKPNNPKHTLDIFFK
In short: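 First, compounds were pin-transferred onto 10 nM Pol kappa. After 15 min at room temperature, substrate was added to 50 nM final. Fluorescence was then measured kinetically at 0 and 10 min.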
Potency is the fitted concentration of half-maximal effect; tags give direction and shape of the fitted curve.

**Q.** How did the Potency turn out when `Oc1c(Br)cc(/C=N/Nc2ccc(Cl)nn2)cc1Br` was run?
**A.** inconclusive: 79.4 µM [inhibitor, single point]

**Q.** For `CSc1nnc(-c2ccco2)c(-c2ccco2)n1`, which Potency is on record?
**A.** inconclusive: 79.4 µM [inhibitor, partial curve]

**Q.** With `CC(=O)Nc1ccc(NC(=O)c2nc(S(=O)(=O)Cc3ccc(F)cc3)ncc2Cl)cc1` as the molecule, how does the Potency read?
**A.** inconclusive: 89.1 µM [inhibitor, partial curve, poor fit]

**Q.** `O=C(O)c1ccccc1C(=O)NCc1ccc2c(c1)OCO2` was tested. Which Potency did it give?
**A.** inconclusive: 89.1 µM [inhibitor, single point]

**Q.** With `Cc1ccc(OCCSc2nc(-c3ccccc3C)nc3cc(=O)[nH]n23)cc1Cl` as the molecule, how does the Potency read?
**A.** inconclusive: 89.1 µM [inhibitor, single point]

**Q.** With `Cn1c2ccccc2c2cc(/C=N/NC(=O)c3ccc(O)cc3O)ccc21` as the molecule, how does the Potency read?
**A.** inactive

**Q.** How did the Potency turn out when `COc1cc(/C=C(\C#N)c2nc3ccc(C)cc3[nH]2)ccc1OCc1ccc(C)cc1` was run?
**A.** inconclusive: 100 µM [inhibitor, single point]

**Q.** Which Potency does the source give for `O=C(CCNc1ccc(F)cc1)c1cc2ccccc2o1` here?
**A.** inactive

**Q.** How did the Potency turn out when `O=C(N/N=C/c1cccnc1)c1ccc(NC(=O)c2cccc(Cl)c2)cc1` was run?
**A.** inactive

**Q.** `O=C(COC(=O)Cn1cnc2ccccc21)Nc1cccc([N+](=O)[O-])c1` was tested. Which Potency did it give?
**A.** inactive

**Q.** Which Potency does the source give for `c1cncc(CNc2cc(-c3ccc4c(c3)OCO4)ncn2)c1` here?
**A.** inactive

**Q.** With `O=C(N/N=C/c1ccc([N+](=O)[O-])o1)c1sc2ccccc2c1Cl` as the molecule, how does the Potency read?
**A.** active: 50.1 µM

**Q.** Which Potency does the source give for `O=C(O)/C(=C\c1ccco1)NC(=O)c1cccc2ccccc12` here?
**A.** active: 50.1 µM

**Q.** For `Cc1noc(C)c1COc1ccc(C(=O)OCC(=O)N2CC(=O)Nc3ccccc32)cc1`, which Potency is on record?
**A.** inactive

**Q.** `COc1cccc(NC(=O)c2cccc3c(=O)c4c([nH]c23)CCCC4)c1` was tested. Which Potency did it give?
**A.** inactive

**Q.** For `O=C(Cn1cc(C(=O)c2cccs2)c2ccccc21)NCc1ccc2c(c1)OCO2`, which Potency is on record?
**A.** inconclusive: 89.1 µM [inhibitor, single point]

**Q.** Which Potency does the source give for `C=CCN=c1scc(C)n1/N=C/c1ccc(O)c(O)c1` here?
**A.** inconclusive: 79.4 µM [inhibitor, partial curve, poor fit]

**Q.** Which Potency does the source give for `CC(C)(C)c1nnc(N/N=C/c2ccccc2)n(N)c1=O` here?
**A.** inactive

**Q.** Which Potency does the source give for `CCOc1cc(C(=O)Nc2cc3c(cc2N2CCCC2)n(C)c(=O)c(=O)n3C)cc(OCC)c1OCC` here?
**A.** inactive

**Q.** `CCc1ccc(S(=O)(=O)Nc2cccc(-c3ccc(N4CCCCC4)nn3)c2)s1` was tested. Which Potency did it give?
**A.** inactive

**Q.** `CN(C(=O)COC(=O)c1ccccc1OCC(=O)Nc1ccc(Br)cc1)c1ccccc1` was tested. Which Potency did it give?
**A.** inactive

**Q.** `O=c1c2ccccc2nc(N/N=C/c2c(O)ccc3ccccc23)n1O` was tested. Which Potency did it give?
**A.** inconclusive: 89.1 µM [inhibitor, partial curve, poor fit]

**Q.** For `CN(CC(=O)Nc1cccc(F)c1)C(=O)c1cccc(-n2cccc2)c1`, which Potency is on record?
**A.** inconclusive: 50.1 µM [inhibitor, partial curve, poor fit]

**Q.** For `COc1cc(/C=C/C(=O)OCC(=O)Nc2ccc(C)cc2[N+](=O)[O-])ccc1O`, which Potency is on record?
**A.** inactive

**Q.** Which Potency does the source give for `COc1ccc(O)c(C(=O)c2cc(SCC(=O)O)c3nc4sc5c(c4c(=O)n3c2)CCCC5)c1` here?
**A.** inconclusive: 39.8 µM [inhibitor, single point]

**Q.** How did the Potency turn out when `O=C(/C=C/c1ccccc1)c1cc(Br)ccc(=O)c1O` was run?
**A.** active: 39.8 µM

**Q.** `Cc1ccc(-c2cc(C(=O)Nc3nccs3)c3ccccc3n2)c(C)c1` was tested. Which Potency did it give?
**A.** inactive

**Q.** How did the Potency turn out when `Oc1ccc(/C=N/N=C(c2ccccc2)c2ccccc2)c(O)c1O` was run?
**A.** inconclusive: 56.2 µM [inhibitor, partial curve, poor fit]

**Q.** How did the Potency turn out when `COc1cc(/C=N\NC(=O)c2ccc(=O)[nH]n2)cc(OC)c1OC` was run?
**A.** active: 50.1 µM

**Q.** How did the Potency turn out when `O=C1CSC(c2ccccc2[N+](=O)[O-])N1CCc1ccccc1` (configuration not stated) was run?
**A.** inactive

**Q.** For `Cc1nn(-c2ccccc2)c2[nH]c(=O)c(CNc3ccc(N4CCOCC4)cc3)cc12`, which Potency is on record?
**A.** inconclusive: 89.1 µM [inhibitor, single point]

**Q.** Which Potency does the source give for `CCC(=O)c1ccc(OCC(=O)N2CCN(S(=O)(=O)c3ccc(Cl)s3)CC2)cc1` here?
**A.** inconclusive: 79.4 µM [inhibitor, single point]

**Q.** `CCc1nnc(NC(=O)CSc2sc3c(O)cc(=O)[nH]c3c2C#N)s1` was tested. Which Potency did it give?
**A.** active: 8.91 µM

**Q.** With `CCOc1ccc(Nc2nc(-c3cccc(Cl)c3)c3c(n2)-c2ccccc2OC3)cc1` as the molecule, how does the Potency read?
**A.** inconclusive: 89.1 µM [inhibitor, single point]

**Q.** `N#Cc1ccccc1N1CCN(C(=O)c2ccc(NC(=O)c3ccc(Br)o3)cc2)CC1` was tested. Which Potency did it give?
**A.** active: 70.8 µM

**Q.** With `O=C1C=CC(=O)c2c(O)c(Cl)c(Cl)c(O)c21` as the molecule, how does the Potency read?
**A.** active: 7.08 µM

**Q.** How did the Potency turn out when `Cc1cc(C(F)F)n2nc(C(=O)Nc3sc4c(c3C#N)CCC4)nc2n1` was run?
**A.** inconclusive: 89.1 µM [inhibitor, single point]

**Q.** With `O=C(Cc1ccc(-c2ccccc2)cc1)NCCS(=O)(=O)N1CCN(c2ccc(F)cc2)CC1` as the molecule, how does the Potency read?
**A.** inactive

**Q.** For `COc1cc(-c2nc3sccn3c2Nc2c(C)cccc2C)ccc1O`, which Potency is on record?
**A.** inconclusive: 89.1 µM [inhibitor, partial curve]

**Q.** Which Potency does the source give for `Cc1ccnc(NS(=O)(=O)c2ccc(NC(=O)Cc3ccc(F)cc3)cc2)n1` here?
**A.** inactive

**Q.** With `Cc1cc(O)cc(C)c1Cl` as the molecule, how does the Potency read?
**A.** inconclusive: 100 µM [inhibitor, partial curve, poor fit]

**Q.** Which Potency does the source give for `CCc1cc(=O)oc2cc(C)c(CN3CCCC(C)C3)c(O)c12` (configuration not stated) here?
**A.** active: 10 µM

**Q.** For `COc1ccc(OC)c(N2C(=O)c3cccnc3C2=O)c1`, which Potency is on record?
**A.** inactive

**Q.** With `CCC1CN(C(=O)N2CCC(C(=O)NCCc3ccc(OC)cc3OC)CC2)c2cc(C)ccc2O1` (configuration not stated) as the molecule, how does the Potency read?
**A.** inactive

**Q.** With `CCS(=O)(=O)c1ccc(O)c(NC(=O)c2cc(-c3ccccn3)nc3ccccc23)c1` as the molecule, how does the Potency read?
**A.** inconclusive: 89.1 µM [inhibitor, partial curve, poor fit]

**Q.** How did the Potency turn out when `CC(=O)c1ccc(C#CC(C)(C)O)s1` was run?
**A.** inconclusive: 89.1 µM [inhibitor, partial curve, poor fit]

**Q.** `O=C(c1ccco1)N1CCN(C(=O)c2ccc(-c3ccc([N+](=O)[O-])cc3)o2)CC1` was tested. Which Potency did it give?
**A.** active: 28.2 µM

**Q.** For `COc1ccc(NC(=O)c2ccco2)cc1NC(=O)COc1ccc(C)c(C)c1`, which Potency is on record?
**A.** inconclusive: 79.4 µM [inhibitor, partial curve]

**Q.** Which Potency does the source give for `O=C(CCS(=O)(=O)c1ccc(Br)cc1)Nc1cc(F)ccc1F` here?
**A.** inconclusive: 100 µM [inhibitor, single point]

**Q.** With `COc1ccccc1NC(=S)NC(=O)/C=C/c1ccco1` as the molecule, how does the Potency read?
**A.** inconclusive: 39.8 µM [inhibitor, single point]

**Q.** `Cc1cccc(CNc2ccnc(-c3ccc(C(=O)N(C)C)cc3)n2)c1` was tested. Which Potency did it give?
**A.** inconclusive: 10 µM [inhibitor, partial curve, poor fit]

**Q.** With `Cc1ccc(S(=O)(=O)Nc2ccccc2C(=O)Nc2nc(-c3ccc(F)cc3)cs2)cc1` as the molecule, how does the Potency read?
**A.** inconclusive: 100 µM [inhibitor, single point]

**Q.** For `CCC(=O)N(CCC(c1ccc(C)cc1)c1ccco1)Cc1ccco1` (configuration not stated), which Potency is on record?
**A.** inconclusive: 89.1 µM [inhibitor, single point]

**Q.** How did the Potency turn out when `Cc1ccc(N2CCN(C(=O)c3nn(C)c4c3CS(=O)(=O)c3ccccc3-4)CC2)c(C)c1` was run?
**A.** inconclusive: 3.55 µM [inhibitor, partial curve, poor fit]

**Q.** How did the Potency turn out when `COc1ccc(CCN(C)C(=O)COC(=O)/C=C/c2ccc(C)o2)cc1OC` was run?
**A.** inconclusive: 100 µM [inhibitor, single point]

**Q.** How did the Potency turn out when `CCC[N+](C)(C)c1ccc(/C=C/c2ccnc3ccccc23)cc1` was run?
**A.** inconclusive: 79.4 µM [inhibitor, partial curve]

**Q.** Which Potency does the source give for `COc1ccc(OC)c(CNC(=O)c2ccc(N3Cc4ccccc4Oc4ncccc43)s2)c1` here?
**A.** inactive

**Q.** `CCc1cccc(NC(=O)CCc2nc3sc4c(c3c(=O)[nH]2)CCCC4)c1` was tested. Which Potency did it give?
**A.** inconclusive: 89.1 µM [inhibitor, single point]

**Q.** For `COc1ccccc1NC(=O)CCC(=O)OCc1ccc(Br)cc1`, which Potency is on record?
**A.** inconclusive: 89.1 µM [inhibitor, single point]

**Q.** Which Potency does the source give for `CC1CN(S(=O)(=O)c2cccc(C(=O)OCCOc3ccccc3)c2)CC(C)O1` (configuration not stated) here?
**A.** inactive

**Q.** `Nc1c(C(=O)NCc2ccco2)sc2nc3c(cc12)C(=O)CCC3` was tested. Which Potency did it give?
**A.** inconclusive: 25.1 µM [inhibitor, full curve, poor fit]

**Q.** Which Potency does the source give for `Cc1ccc(NC(=O)COC(=O)CCc2c(C)nc3nc(N)nn3c2C)cc1C` here?
**A.** inactive

**Q.** How did the Potency turn out when `Cn1c(=O)c(-c2ccc(F)cc2)nc2cnc(N3CCOCC3)nc21` was run?
**A.** inactive

**Q.** With `COc1cccc(CNS(=O)(=O)c2ccc3c(c2)C(C)(C)C(=O)N3C)c1` as the molecule, how does the Potency read?
**A.** inconclusive: 2.51 µM [inhibitor, full curve, poor fit]

**Q.** How did the Potency turn out when `CC(=O)N/C(=C\c1ccccc1)C(=O)NCC(=O)O` was run?
**A.** inconclusive: 100 µM [inhibitor, single point]

**Q.** Which Potency does the source give for `COc1ccc2c(c1)c(=O)oc1c(C)c(OC(C)C(=O)N[C@@H](Cc3c[nH]c4ccc(O)cc34)C(=O)O)ccc12` (some centres not stated) here?
**A.** inconclusive: 79.4 µM [inhibitor, partial curve, poor fit]

**Q.** How did the Potency turn out when `COc1cccc(-c2csc(NC(=O)Oc3ccccc3)n2)c1` was run?
**A.** inconclusive: 89.1 µM [inhibitor, single point]

**Q.** `COc1c(O)cc2oc(-c3ccc(O)c(O)c3)cc(=O)c2c1O` was tested. Which Potency did it give?
**A.** active: 5.01 µM and active: 752 nM

**Q.** For `O=C(Nc1ccc(Cl)c(Cl)c1)N1CCCCCC1`, which Potency is on record?
**A.** active: 89.1 µM

**Q.** How did the Potency turn out when `O=C(NN=C1c2ccccc2-c2ccccc21)c1ccccc1Br` was run?
**A.** inactive

**Q.** How did the Potency turn out when `O=C(CN1c2cccc3cccc(c23)S1(=O)=O)NC1CCCCC1` was run?
**A.** inconclusive: 89.1 µM [inhibitor, single point]

**Q.** With `Cc1ccc(C(=O)NCC(=O)NCCSc2ccc(Br)cc2)cc1` as the molecule, how does the Potency read?
**A.** inconclusive: 89.1 µM [inhibitor, single point]
